Data: the supplement of paper PMC12217912
The list shows a part of the results. The full chains were built here from the parent and the listed change. Inactive controls read about 0.05.

B1: TEV protease; numbered along this chain (parent)
chain: MGESLFKGPRDYNPISSSICHLTNESDGHTTSLYGIGFGPFIITNKHLFRRNNGTLVVQSLHGVFKVKDTTTLQQHLVDGRDMIIIRMPKDFPPFPQKLKFREPQREERICLVTTNFQTKSMSSMVSDTSCTFPSGDGIFWKHWIQTKDGQCGSPLVSTRDGFIVGIHSASNFTNTNNYFTSVPKNFMELLTNQEAQQWVSGWRLNADSVLWGGHKVFMVKPEEPFQPVKEATQL

Variants of: B1
Assay: raw area under fraction-flipped curve 0-4 h after induction (AUC4h, not background-subtracted), DNA-recorder readout of cleavage of the substrate (dimensionless); higher = more cleavage of the substrate by the protease variant
Details: temperature: 34 °C; time window: 0-4 h after rhamnose induction
Experimental: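 In vivo DNA recorder in E. coli TOP10(DE3) ΔrhaA at 34 °C. Each TEVp single-site mutant (parent TEVp 0) is paired with a single-site variant of the 7-mer TEVs (canonical ENLYFQ|S). The substrate sits between flexible linkers in a Bxb1-sfGFP-TEVs-SsrA fusion, so cleavage stabilises Bxb1 and speeds flipping of a recombination array, read by NGS. The value is the raw area under the fraction-flipped curve over 0-4 h after rhamnose induction (AUC4h), with ≥20 reads per time point. It is not background-subtracted; inactive controls average about 0.047.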
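Also: Bxb1 expression induced with 0.2% (w/v) L-rhamnose at OD600 near 0.5, cultures sampled hourly, flipped fraction per protease–substrate barcode pair counted by paired-end Illumina sequencing.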

Variant	area with substrate ENLYFQA	area with substrate ENLYFQC	area with substrate ENLYFQD	area with substrate ENLYFQE	area with substrate ENLYFQF	area with substrate ENLYFQG	area with substrate ENLYFQI	area with substrate ENLYFQL	area with substrate ENLYFQM	area with substrate ENLYFQN	area with substrate ENLYFQP	area with substrate ENLYFQQ	area with substrate ENLYFQR	area with substrate ENLYFQS	area with substrate ENLYFQT	area with substrate ENLYFQV	area with substrate ENLYFQW	area with substrate ENLYFQH	area with substrate ENLYFQK	area with substrate ENLYFQY
L211E	0.113	0.114	0.0956	0.0482	0.0999	0.125	0.0721	0.0677	0.0975	0.11	0.0524	0.0745	0.0663	0.122	0.0766	0.0089	0.0731	–	–	–
W199A	0.0603	0.0723	0.0617	–	–	0.0593	0.0432	–	0.0422	0.0667	–	0.0509	0.0581	0.0654	–	0.0122	–	0.047	0.0757	–
W199T	0.0643	0.0747	0.0676	–	–	–	0.0686	–	0.0693	0.0517	0.0548	–	0.0572	0.0676	–	–	–	–	0.0634	0.0574
Y12T	–	0.124	0.0754	–	–	0.0828	–	0.0573	0.0908	0.0776	–	–	0.0654	0.106	0.0558	0.0559	0.0618	–	0.0435	0.0762
T31Y	–	0.154	–	–	–	–	0.0823	0.0897	0.117	0.0447	0.0589	0.071	–	0.11	0.0649	0.12	0.107	–	–	–
K7F	–	0.142	–	–	–	–	0.0606	0.0719	–	–	–	–	–	0.111	–	–	0.0579	0.0772	0.0722	–
S201M	0.0835	0.11	0.0632	–	–	0.14	–	–	–	0.0809	–	0.0677	0.0651	0.0968	–	–	–	–	0.0678	0.0535
S201T	0.132	0.144	–	–	–	–	0.0602	0.0382	–	–	0.0595	–	0.0561	0.123	0.0584	–	0.065	0.109	–	–
R10A	–	0.0907	–	–	–	0.103	0.0365	0.0466	–	–	–	–	0.0622	0.0957	0.0586	0.0761	0.0661	–	–	–
A232I	0.102	–	–	–	–	–	–	–	–	–	–	–	–	0.0973	0.0242	0.0713	–	–	–	–
A232D	0.106	–	0.0915	–	0.0737	–	–	0.0572	0.098	0.0783	0.053	0.0957	0.0537	0.116	0.0584	–	0.0692	0.0836	0.0643	0.0792
V220H	0.104	0.138	0.0709	–	0.0775	0.116	–	0.0541	0.0915	–	–	–	0.0558	0.117	0.075	0.074	0.0742	0.0534	0.0675	0.0793
V220K	0.0949	–	0.105	–	–	0.101	–	–	0.0928	0.107	–	–	0.053	0.102	0.0636	0.0818	0.0754	0.067	0.0663	–
V220F	0.101	0.0912	0.0607	–	0.0807	0.099	–	0.0634	0.0971	–	0.0806	–	0.0577	0.104	0.0719	0.0618	0.0528	–	–	–
L191W	0.0687	0.0967	–	0.0758	–	–	0.0653	0.0487	–	0.0714	–	0.0892	0.067	0.0836	–	–	0.0694	–	–	–
